Data on one substance can be found in US20130040882A1, “USE OF FIBROBLAST GROWTH FACTOR FRAGMENTS” (NOVARTIS AG, priority 2003, published 2013).

Certain results were filed several times, with different values. The other results are left out here. There may be further records. The records of an entry read as repeated measurements (runs, samples, wells or individuals).

A short description of the series: Salmon calcitonin/PTS893 monkey study: haematology.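 Note: haematology parameters were measured in blood collected from a peripheral vein.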 To be noted: females. The arrangement: unit not given here. The format is in vivo, cynomolgus monkeys (Macaca fascicularis).

For the substance “Leu8, Asp10, Lysll, A1a16, G1n18, Thr33, A1a34 human PTH 1-34 [PTS893, Leu8, Asp10, Lysll, A1a16, G1n18, Thr33, A1a34 human PTH 1-34 [hPTH(1-34)]]”, where the note is “d7”, the “Haematology B” value was 0.06 and 0.04 [columns of one line]; the “Haematology HB” value was 11.7 and 12.1 [columns of one line]; the “Haematology MCV” value is 67 and 68 [columns of one line]; the “Haematology WBC” value was 18.4 and 12.3 [columns of one line]. For the same substance, under “d13”, the “Haematology B” value is 0.03 and 0.04 [columns of one line]; the “Haematology MCV” value was 67 and 66 [columns of one line]; the “Haematology WBC” value is 13.2 and 10.1 [columns of one line]. Under “d−8 (before dosing)”, the “Haematology HB” value is 13.4 and 12.9 [columns of one line]; the “Haematology MCV” value is 63 and 64 [columns of one line]; the “Haematology WBC” value was 10.1 and 14.3 [columns of one line].
